# Data as given in the supplement of paper PMC11417369.
# ± gives the standard deviation of the averaged measurements. Some of the results follow.
# Test system: PfAP2-EXP AP2 domain (GST-tagged)
# Assay: gcPBM binding intensity (ln(normalized median fluorescence intensity)); higher = stronger DNA binding
# How it was run: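 An Agilent 4 × 180k array carrying primer-extended double-stranded 36-bp intergenic genomic probes and negative controls received GST-tagged P. falciparum DNA-binding domains expressed in E. coli, about 25 μg on average, for 1 h. The binding buffer contained 1× PBS, 1% milk, 0.2 mg/ml BSA, 0.5% salmon testes DNA and 0.03% Triton X-100. Binding intensity is the top Masliner-normalised natural-log median intensity across replicate spots of either probe orientation, read after Alexa488 anti-GST antibody staining and a 488 nm scan.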
row,Sequence,gcPBM binding intensity (ln)
1,TGTAGCATTTAATTCACACATAAAAAATGTATCCAT [CACACA_site4986],8.27 ± 0.4
2,AAAAAAAGTAAAAAGTGTACTTAATATATATATATA [XGTACX_site838],9.91 ± 0.45
3,TACAATATACCTACTTGTACACAAAATAAAAGTAGT [XGTACX_site6029],8.61 ± 0.2
4,TTTTATATAAATATCACACACACACGCATGTTTTAA [CACACA_site6187],8.63 ± 0.38
5,TACACACCTAACTATGCATGCATCAATATAGTGGAT [TGCATGCA_site443],9.72 ± 0.4
6,TATTCATGCATATACACACACATATATATATATTTT [CACACA_site3955],8.9 ± 0.45
7,ATCATAATTTATTATACACACAATACGTGACCTATT [CACACA_site6977],8.63 ± 0.36
8,AATGAAAAATTGTAATGTACATAAATAAATAAATAA [XGTACX_site4048],9.09 ± 0.3
9,AAAAAAAAATTAAACATACACACGTTACTATTTTTA [CACACA_site1687],8.07 ± 0.42
10,ATGAACATGTGACAATGTACATTTATATCTTAAGAA [XGTACX_site4960],8.66 ± 0.41
11,ATAATATATATATATATGTATGTATATATGTATGTA [GTGCAC_negctrl_site575],8.4 ± 0.39
12,TACACCCAGAAATGCACACACATATATATATATATA [CACACA_site5289],9.98 ± 0.35
13,TATATATATATAATAGCATGCTATATTATATATATA [TGCATGCA_site886],9.64 ± 0.13
14,TATTCTTATTATTACACACACAATTATATTTACCCC [CACACA_site6381],9.14 ± 0.66
15,TATTTTTTAATTGTTTCACACATTATTTTTTACATA [CACACA_site6078],8.63 ± 0.4
16,TTAACATAAATTGTGTCATTTTTTTTTTTTTTTTTA [CACACA_negctrl_site1221],8.03 ± 0.54
17,CTAATAAAAAAAAAAAGTACATATGACAATATAAAG [XGTACX_site1598],8.95 ± 0.52
18,AATTTTTTTTTCTTTTGTACGTAAATATGTGTAGGC [XGTACX_site215],8.72 ± 0.38
19,TTAACACATTTTATGTGTACTCATATGATTTAAAAT [XGTACX_site7516],8.45 ± 0.25
20,TTAAAATGAAGAAGTGCACACATATATATATTTATA [CACACA_site8063],9.06 ± 0.26
21,TATATATTAGTGTTGACACACACAAAAAAAAAAAAA [CACACA_site8392],8.53 ± 0.45
22,TATAAACAGACGAAAACACACATATGTAGATATATA [CACACA_site6371],8.94 ± 0.55

row,Sequence,gcPBM binding intensity (ln)
1,TTATAAATGTGCGTAGTGCATAAACAAAAAAAAAAT,9.31 ± 0.014
2,ATTTTTTTTTTTTTTTTTTTTTTTTATGAATGTTAT [CACACA_negctrl_site1319],7.92 ± 0.54
3,ATCAGGCAAAATTTTTGTACATATATATTTTATTTT [XGTACX_site1245],9.12 ± 0.61
4,ATTTTTTTTTTTTTTTTTTTTTTTTTTTTTTTTTTT [CACACA_negctrl_site1364],9.04 ± 0.56
5,AGATTTCAAGGTAATAGATCAATTTTAATTTGTAAA [CACACA_negctrl_site514],7.97 ± 0.42
6,TGTATAAAAAACTAATGTACAAATGACAAGATATCT [XGTACX_site4600],8.7 ± 0.66
7,AATGCACAGCTCTTAGGCAAAAGTGGGTATTTACAC [GTGCAC_negctrl_site579],8.81 ± 0.28
8,CATTTAGTTCATACTATGCACACTACGTATATTTTT [CACACA_site2694],8.98 ± 0.26
9,ATTTAATACAAATACACACACAAATATGTACCTATA [CACACA_site7718],8.51 ± 0.35
10,ACAATTCATTAGAATTGTACAAAAGGATGAAGCGAA [XGTACX_site5242],9.1 ± 0.43
11,ATTTTTTTTTTTTAATTTGATATTTGCGTTTATATA [CACACA_negctrl_site1305],8.45 ± 0.56
12,AATATATGATAATTTTTTTTTTTTTTTTTTAAATAT [CACACA_negctrl_site452],7.88 ± 0.6
13,AACAATTGTTAAAGGTGTACCATATGTATATAAGAA [XGTACX_site5723],9.04 ± 0.54
14,AGACGTAATAATTGTTGTACATAAAAAAATAAGAAA [XGTACX_site7594],8.9 ± 0.28
15,AAAAAATGTTAAAAAAGTACTTTCTTTATTTAATAA [XGTACX_site2908],8.07 ± 0.4
16,ATGATATTATAAAAAAGTACATATGTATATAATTAT [XGTACX_site7652],8.88 ± 0.45
17,TGTGTTAGCAAAAAAGTGCACAGGGAAAAAAAAATA [GTGCAC_site9397],9.24 ± 0.29
18,TAAACCTATTATACGGGTACTTATTTGATTCTTATA [XGTACX_site5292],8.38 ± 0.44
19,ACAAATGGAACTCCTACAAAAAATTTCCATAATATT [XGTACX_negctrl_site132],8.2 ± 0.38
20,AAAAGCTTAAAAAATTGTACATAAATGAATAAATAT [XGTACX_site5201],8.69 ± 0.31
21,AAAAATAAAACAATTACACACATAACTTTATTTTTA [CACACA_site6563],8.39 ± 0.45
22,GAACTCATTTAATATTGTACATTCTGATATTTTTTA [XGTACX_site5995],8.68 ± 0.45

row,Sequence,gcPBM binding intensity (ln)
1,ACCACCATATAACATACATGCATCTTTTTTCCCTTC [TGCATGCA_site583],9.33 ± 0.33
2,TATATACATACATATACACACATATATATATATATA [CACACA_site401],10.1 ± 0.28
3,TCATTGTTTAATATGTGTCCTCAAAATTTGTTATAT [XGTACX_site677],8.71 ± 0.29
4,GTATAAAATATTGATTGTACTTTATTCATTTTTTTT [XGTACX_site2520],8.37 ± 0.3
5,TCATATTCCAAGTGTACACATAAATCCCTAATAACA [CACACA_site5167],8.9 ± 0.74
6,TCTTGTTAATATATTAAATATATCTATAAATATATA [XGTACX_negctrl_site486],8.37 ± 0.35
7,TCTTAAATATATAAATTGAAAAATATAAAAGTAATA [CACACA_negctrl_site1558],8.37 ± 0.42
8,AAAACAATATACTGTAGTACTGATGATATATATATA [XGTACX_site7798],9.61 ± 0.3
9,ACAATATAGATTAAAAGTACAAATAGTAAATTATAT [XGTACX_site3165],8.64 ± 0.26
10,ATAAAAAAAAATAGCACACATAAATATATTATATAT [CACACA_site767],8.66 ± 0.35
11,CTACTTATAAATAGAACACACATAAGTGTATTTGTA [CACACA_site3759],8.23 ± 0.5
12,AATCATCTCATAAAAATTAATTAGTGTATGTCTTTT [TGCATGCA_negctrl_site416],8.32 ± 0.35
13,TAATTATGTATGAACTGTACAGGTTATTTTATTTTA [XGTACX_site5204],8.38 ± 0.42
14,TAAAATTTAAATTATACACACTTAAGTAACATCATC [CACACA_site4450],8.88 ± 0.56
15,AAAAAATACCTCTATAGTACATATATATAATATTTA [XGTACX_site7222],8.16 ± 0.29
16,AAAAAAAATTTATTTGCATGCAAAAAAAAAAAAAAA [TGCATGCA_site67],9.5 ± 0.23
17,AAGCCCATTATTAAATGTACAAAATTTTATAAACTA [XGTACX_site7800],8.46 ± 0.5
18,TATAGGTATTTATATACACACATATTCTTTTTACAC [CACACA_site6686],8.47 ± 0.33
19,CAGTGCCAAATTAGCACACACATATATACATGAATT [CACACA_site2814],8.54 ± 0.45
20,TAAAACATATATACAAGTACACAAAGGATATATATA [XGTACX_site3710],8.79 ± 0.41
21,GTATATATGTATATATGTACATATATATAATATATT [XGTACX_site56],8.5 ± 0.16
22,CACAGTGATATAAAAACACACATGAATTATAATTTC [CACACA_site1667],8.34 ± 0.49

row,Sequence,gcPBM binding intensity (ln)
1,ATGTAGATAAAACGTGTGCACATGTTTTTTGTTATT,8.77 ± 0.32
2,TTTTGTTATGGTTTGATGCACTTATATATAAATATT [GTGCAC_site9705],9.01 ± 0.21
3,ATATATATATATATATGTACTTATTACCAATGTTAG [XGTACX_site1896],10.1 ± 0.33
4,ACCCATTTAACAAAATGTACATTATTATAATTACTT [XGTACX_site7105],8.8 ± 0.48
5,AAATTTTAAATAGTATGTACGTATGAAATATATATG [XGTACX_site7511],9.03 ± 0.38
6,ATTTAAATACAAAATTGTACTTTTCTATATTTAACA [XGTACX_site6146],8.44 ± 0.41
7,AAAATTTTACAGAAGGTGCGTATATTTTCCTGCTTA [GTGCAC_site9643],8.61 ± 0.27
8,TTTGGAAAAAAATTATTTAAACGATATGAATTGATG [XGTACX_negctrl_site506],8.44 ± 0.49
9,CTTACCAAAAGACACACACACACAAGATATATAAAT [CACACA_site6964],8.77 ± 0.56
10,AAATTAAAATAAAAATGTACATATAAAGACACAACT [XGTACX_site3132],9.19 ± 0.45
11,TACAATATTTTGAGACGTACATATATACATTTACAT [XGTACX_site5880],8.48 ± 0.31
12,TGTAAGTCGTTATAAGCACACACATAAATAAAAATA [CACACA_site8448],8.72 ± 0.56
13,TATATATATATACCAACACACATACAGATATATATA [CACACA_site5060],9.91 ± 0.085
14,TTTATATACAAAAATGCACACGAAAAGTAATATATA [CACACA_site9387],8.88 ± 0.4
15,TGAACTTACTTGGACATACACACATATATATATATA [CACACA_site2977],10.2 ± 0.27
16,TTTTTTTTTTTTTTTTAACACACATATATATATTTT [CACACA_site8585],8.3 ± 0.49
17,ATAAAAGATTTATACATACACACATATTATATTCAC [CACACA_site3714],8.47 ± 0.44
18,ATATATATGTATATAACATGCAACATTTAATAATAA [TGCATGCA_site1018],8.73 ± 0.27
19,TCATAGCTAGGATAACGTACAGAAAAGTGAAAAATT [XGTACX_site3322],9.07 ± 0.48
20,ACACATGTATTTGGTGCATGTTGTTAAAAAAATATT [TGCATGCA_site795],8.71 ± 0.4
21,ATTCTAGTAATATATGTATATTTATATATGTATGTG [XGTACX_negctrl_site419],8.12 ± 0.35
22,TTTTTTTTTTGTTGTTGTACTCTTATATTTTTATAT [XGTACX_site6178],8.77 ± 0.43
